Some of the results follow. The list includes weakly bound sequences.
target: T1, MBP-FoxP3dN (UniProt Q99JB6); test: PD-seq (MBP pull-down with sequencing); details: 20 mM Tris-HCl pH 7.5, 100 mM NaCl, 1.5 mM MgCl2, 0.4 uM protein, 0.1 uM dsDNA library, 30 min, room temperature, amylose pull-down; high values mean tight binding; double strand, one strand shown
T1 sequence: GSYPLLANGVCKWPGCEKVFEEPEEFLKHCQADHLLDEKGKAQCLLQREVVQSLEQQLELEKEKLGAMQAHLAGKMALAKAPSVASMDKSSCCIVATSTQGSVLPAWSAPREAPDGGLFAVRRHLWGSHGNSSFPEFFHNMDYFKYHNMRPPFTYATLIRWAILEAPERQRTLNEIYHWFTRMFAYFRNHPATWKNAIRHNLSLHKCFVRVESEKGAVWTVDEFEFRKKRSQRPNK

| Sequence | binding signal (RPM ratio (pull-down/input)) |
| --- | --- |
| GATGATTGTTCTCCCAGCTGATGAATTAGCGGTCTCGAGTAAACAAATTTTCCTAATCTTTCTGTTCAAGCGCCATCTAC | 0.555 |
| GATGATTGTTCTCCCAGCTGATGAATTAGAAACATCGAGTAAACAAATTTTCCTAATCTTTCTGTTCAAGCGCCATCTAC | 0.637 |
| GATGATTGTTCTCCCAGCTGATGAATTGGACACATCGAGTAAACAAATTTTCCTAATCTTTCTGTTCAAGCGCCATCTAC | 0.519 |
| GATGATTGTTCTCCCAGCTGATGAATTATTCGCGTCGAGTAAACAAATTTTCCTAATCTTTCTGTTCAAGCGCCATCTAC | 0.563 |
| GATGATTGTTCTCCCAGCTGATGAATTTATAGATTCGAGTAAACAAATTTTCCTAATCTTTCTGTTCAAGCGCCATCTAC | 0.611 |
| GATGATTGTTCTCCCAGCTGATGAATTGAGGAAATCGAGTAAACAAATTTTCCTAATCTTTCTGTTCAAGCGCCATCTAC | 0.246 |
| GATGATTGTTCTCCCAGCTGATGAATTATTTGTATCGAGTAAACAAATTTTCCTAATCTTTCTGTTCAAGCGCCATCTAC | 2.84 |
| GATGATTGTTCTCCCAGCTGATGAATTGTTGTTTTCGAGTAAACAAATTTTCCTAATCTTTCTGTTCAAGCGCCATCTAC | 7.89 |
| GATGATTGTTCTCCCAGCTGATGAATTTCTAGGATCGAGTAAACAAATTTTCCTAATCTTTCTGTTCAAGCGCCATCTAC | 0.191 |
| GATGATTGTTCTCCCAGCTGATGAATTTCAAGCGTCGAGTAAACAAATTTTCCTAATCTTTCTGTTCAAGCGCCATCTAC | 0.409 |
| GATGATTGTTCTCCCAGCTGATGAATTTCTAGTCTCGAGTAAACAAATTTTCCTAATCTTTCTGTTCAAGCGCCATCTAC | 0.3 |
| GATGATTGTTCTCCCAGCTGATGAATTCAGGTACTCGAGTAAACAAATTTTCCTAATCTTTCTGTTCAAGCGCCATCTAC | 0.5 |
| GATGATTGTTCTCCCAGCTGATGAATTTGAAGTGTCGAGTAAACAAATTTTCCTAATCTTTCTGTTCAAGCGCCATCTAC | 0.698 |
| GATGATTGTTCTCCCAGCTGATGAATTATGAGATTCGAGTAAACAAATTTTCCTAATCTTTCTGTTCAAGCGCCATCTAC | 0.682 |
| GATGATTGTTCTCCCAGCTGATGAATTCGTACACTCGAGTAAACAAATTTTCCTAATCTTTCTGTTCAAGCGCCATCTAC | 0.638 |
| GATGATTGTTCTCCCAGCTGATGAATTCACAGAGTCGAGTAAACAAATTTTCCTAATCTTTCTGTTCAAGCGCCATCTAC | 0.193 |
| GATGATTGTTCTCCCAGCTGATGAATTGAGTGGGTCGAGTAAACAAATTTTCCTAATCTTTCTGTTCAAGCGCCATCTAC | 0.538 |
| GATGATTGTTCTCCCAGCTGATGAATTCCGCGTGTCGAGTAAACAAATTTTCCTAATCTTTCTGTTCAAGCGCCATCTAC | 4.38 |
| GATGATTGTTCTCCCAGCTGATGAATTTAAGGAATCGAGTAAACAAATTTTCCTAATCTTTCTGTTCAAGCGCCATCTAC | 0.245 |
| GATGATTGTTCTCCCAGCTGATGAATTATCCTCGTCGAGTAAACAAATTTTCCTAATCTTTCTGTTCAAGCGCCATCTAC | 0.292 |

| Sequence | binding signal (RPM ratio (pull-down/input)) |
| --- | --- |
| GATGATTGTTCTCCCAGCTGATGAATTTACCCATTCGAGTAAACAAATTTTCCTAATCTTTCTGTTCAAGCGCCATCTAC | 0.478 |
| GATGATTGTTCTCCCAGCTGATGAATTTTGCGATTCGAGTAAACAAATTTTCCTAATCTTTCTGTTCAAGCGCCATCTAC | 2.4 |
| GATGATTGTTCTCCCAGCTGATGAATTCCTTTTATCGAGTAAACAAATTTTCCTAATCTTTCTGTTCAAGCGCCATCTAC | 0.345 |
| GATGATTGTTCTCCCAGCTGATGAATTTAACATATCGAGTAAACAAATTTTCCTAATCTTTCTGTTCAAGCGCCATCTAC | 0.555 |
| GATGATTGTTCTCCCAGCTGATGAATTTTGCACCTCGAGTAAACAAATTTTCCTAATCTTTCTGTTCAAGCGCCATCTAC | 2.8 |
| GATGATTGTTCTCCCAGCTGATGAATTTATTCCGTCGAGTAAACAAATTTTCCTAATCTTTCTGTTCAAGCGCCATCTAC | 0.546 |
| GATGATTGTTCTCCCAGCTGATGAATTAACCAAATCGAGTAAACAAATTTTCCTAATCTTTCTGTTCAAGCGCCATCTAC | 0.187 |
| GATGATTGTTCTCCCAGCTGATGAATTGCAACTGTCGAGTAAACAAATTTTCCTAATCTTTCTGTTCAAGCGCCATCTAC | 2.99 |
| GATGATTGTTCTCCCAGCTGATGAATTGTTGCTTTCGAGTAAACAAATTTTCCTAATCTTTCTGTTCAAGCGCCATCTAC | 3.26 |
| GATGATTGTTCTCCCAGCTGATGAATTACGGAGTTCGAGTAAACAAATTTTCCTAATCTTTCTGTTCAAGCGCCATCTAC | 0.478 |
| GATGATTGTTCTCCCAGCTGATGAATTCCCACACTCGAGTAAACAAATTTTCCTAATCTTTCTGTTCAAGCGCCATCTAC | 0.312 |
| GATGATTGTTCTCCCAGCTGATGAATTTTGAGATTCGAGTAAACAAATTTTCCTAATCTTTCTGTTCAAGCGCCATCTAC | 0.705 |
| GATGATTGTTCTCCCAGCTGATGAATTTAACGTTTCGAGTAAACAAATTTTCCTAATCTTTCTGTTCAAGCGCCATCTAC | 0.784 |
| GATGATTGTTCTCCCAGCTGATGAATTCCTTACGTCGAGTAAACAAATTTTCCTAATCTTTCTGTTCAAGCGCCATCTAC | 0.256 |
| GATGATTGTTCTCCCAGCTGATGAATTAGGGATTTCGAGTAAACAAATTTTCCTAATCTTTCTGTTCAAGCGCCATCTAC | 0.393 |
| GATGATTGTTCTCCCAGCTGATGAATTACCCCAATCGAGTAAACAAATTTTCCTAATCTTTCTGTTCAAGCGCCATCTAC | 0.275 |
| GATGATTGTTCTCCCAGCTGATGAATTTATACTGTCGAGTAAACAAATTTTCCTAATCTTTCTGTTCAAGCGCCATCTAC | 0.843 |
| GATGATTGTTCTCCCAGCTGATGAATTAAGGAATTCGAGTAAACAAATTTTCCTAATCTTTCTGTTCAAGCGCCATCTAC | 0.681 |
| GATGATTGTTCTCCCAGCTGATGAATTTCGTGGCTCGAGTAAACAAATTTTCCTAATCTTTCTGTTCAAGCGCCATCTAC | 0.544 |
| GATGATTGTTCTCCCAGCTGATGAATTCGGGTGGTCGAGTAAACAAATTTTCCTAATCTTTCTGTTCAAGCGCCATCTAC | 0.486 |
